“And” between values parts separate entries of the source, which are not always exact repeats. Equal entries are not always repeated. The whole screen tested about 360,000 compounds, of which about 11,000 (3.1%) were called active. This list was built around the results that the source calls inconclusive (neither active nor inactive); the mix of calls is not that of the screen. The call rests on the fitted dose curve; in most records, active means well fitted inhibition curve with a large enough effect; inconclusive means small, poorly fitted or top-dose-only effect; inactive means no such curve, though single readings can be large or run the other way. No potency is given beside an inconclusive call; the fits are too rough.
biological target: Schistosoma mansoni thioredoxin glutathione reductase (TGR) (UniProt Q962Y6); assay: qHTS Assay for the Inhibitors of Schistosoma Mansoni Peroxiredoxins; conditions: purified TGR, DTNB reduction, TNB absorbance 405 nm; activity change, negative = inhibition: at 114 µM (top of the series) unless noted; further: nearly all actives have a fitted effect of over 60% in size
In short: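 TGR 20 nM + NADPH 100 uM (dispensed conc.), cpd preinc 15 min RT; start with NADPH (500 uM addition) then DTNB (15 mM addition). Kinetic TNB absorbance, 405 nm filter. Four-parameter Hill fit across titration.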
On the % scale 0 is the no-effect control and ±100 the full control effect; potency means the concentration at half of the fitted maximal effect; tags describe the fitted curve by direction and shape.

Row | SMILES | activity change, negative = inhibition | Potency
1 | N/C(=N\OC(=O)c1ccccc1)c1ccncc1 | inactive: 15.1% | –
2 | COc1ccc(O)c(C(=O)C2c3ccccc3C(=O)N2c2ccc(C)cc2)c1 (centres undefined) | inactive: 0% | –
3 | Cc1cccc(CN2CCC(N3CC(C)OC(C)C3)CC2)c1 (centres undefined) | inactive: 7.88% | –
4 | COc1ccc([C@@H]2[C@H]3CN(C(C)=O)CC=C3C(C#N)=C(N)C2(C#N)C#N)c2ccccc12 | – | inconclusive [inhibitor, partial curve]
5 | CCOc1ccc(CN2CCN(Cc3cc4c(cc3Cl)OCO4)CC2CCO)cc1 (centres undefined) | – | inconclusive [inhibitor, partial curve]
6 | O=C(NCCCN1CCCCCC1)c1ccc2c(Cl)c3c(nc2c1)CCCC3 | – | inconclusive [inhibitor, partial curve]
7 | CC1CCCCC12NC(=O)N(CC(=O)c1ccc[nH]1)C2=O (centres undefined) | – | inconclusive [inhibitor, partial curve]
8 | CN1C(=O)C(=Cc2ccc(N3CCCCCC3)cc2)C(=O)N(C)C1=O | – | inconclusive [inhibitor, partial curve]
9 | CC(Cc1ccccc1)NC(=O)c1cc([N+](=O)[O-])ccc1Cl (centres undefined) | – | inconclusive [inhibitor, single point]
10 | O=C(NCCCc1ccccc1)c1ccc(CS(=O)Cc2ccccc2Cl)o1 (centres undefined) | – | inconclusive [inhibitor, single point]
11 | S=C(NCC1CCCO1)Nc1cc(Cl)c(Cl)cc1Cl (centres undefined) | – | inconclusive [inhibitor, partial curve]
12 | Cn1c(=O)c(=O)n(C)c2cc(N3CCCCC3)c(NS(=O)(=O)c3ccc([N+](=O)[O-])cc3)cc21 | – | inconclusive [inhibitor, partial curve]
13 | O=C(Cc1ccccc1)N/N=C/c1cc(Br)cc(Br)c1O | – | inconclusive [inhibitor, full curve, poor fit]
14 | O=C(c1ccco1)N1CCn2cccc2C1c1ccccc1 (centres undefined) | – | active: 35.5 µM
15 | O=C1C=C(c2ccc(OC(F)(F)F)cc2)C[C@@H](c2ccc(Cl)cc2)C1 | inactive: -9.8% | –
16 | O=C(NCc1ccco1)c1csc2c1CCCC2 | – | inconclusive [inhibitor, partial curve]
17 | Cc1ccc(S(=O)(=O)C(CNC(=O)C(=O)NCCc2ccc(Cl)cc2)c2ccco2)cc1 (centres undefined) | – | inconclusive [inhibitor, partial curve]
18 | OCCN(CC(O)Cn1ccc2ccccc21)CC(O)Cn1ccc2ccccc21 (centres undefined) | – | inconclusive [inhibitor, partial curve]
19 | Cc1ccc(S(=O)(=O)c2nc(-c3ccccc3F)oc2N2CC(C)OC(C)C2)cc1 (centres undefined) | – | active: 20 µM
20 | O=[N+]([O-])c1c(Nc2ccccn2)cc(Cl)c2nonc12 | – | active: 0.891 µM
21 | Nc1nc(CN2CCN(C(c3ccccc3)c3ccccc3)CC2)nc(Nc2ccccc2)n1 | – | inconclusive [inhibitor, partial curve]
22 | Cc1ccc2c(c1)cc1c(=O)n(Cc3ccccc3Cl)nc(C)n12 | inactive: 8.66% | –
23 | COc1cccc(-c2nc(CS(=O)(=O)CC(=O)Nc3ccccc3Cl)c(C)o2)c1 | – | inconclusive [inhibitor, full curve]

Row | SMILES | activity change, negative = inhibition | Potency
24 | O=C(C1=C[C@H](c2coc3ccccc3c2=O)C[C@H](OCc2ccc(CO)cc2)O1)N1CCN(Cc2ccc3c(c2)OCO3)CC1 | inactive: -16.5% | –
25 | O=C1Nc2ccccc2C(O)(C(=O)NCc2ccco2)N1c1ccc(Cl)cc1 (centres undefined) | inactive: -21.7% | –
26 | O=C(NCc1cccnc1)c1ccc([N+](=O)[O-])o1 | – | inconclusive [inhibitor, partial curve]
27 | Cc1sc2nc(CN3CCOCC3)nc(Oc3ccc(NC(=O)c4ccco4)cc3)c2c1C | – | active: 44.7 µM and active: 28.2 µM
28 | N=C1C(c2ccccc2)=C(O)CN1c1cccc2ccccc12 | inactive: -0.318% | –
29 | C#CCNC(=O)C1=C[C@@H](c2ccc(C(F)(F)F)cc2)C[C@@H](OCCCCO)O1 | – | active: 22.4 µM
30 | O=C(CSc1ccccc1F)NC(=O)NCc1ccco1 | – | inconclusive [inhibitor, partial curve]
31 | O=C1Nc2cc(C(F)(F)F)ccc2N2CCCCC12 (centres undefined) | – | inconclusive [inhibitor, partial curve]
32 | Cc1ccc(-c2ccc(/C=C3\SC(N4CCOCC4)=NC3=O)o2)cc1 | – | inconclusive [inhibitor, partial curve]
33 | CC(=O)Nc1ccc(S(=O)(=O)Nc2cc(C)cn(Cc3ccccc3)c2=O)cc1 | – | inconclusive [inhibitor, partial curve, poor fit]
34 | COc1ccccc1NC(=O)c1cc(C(=O)Nc2ccccc2OC)cc(N2C(=O)CCC2=O)c1 | – | inconclusive [inhibitor, partial curve]
35 | O=C(c1ccc([N+](=O)[O-])s1)N1CCN(c2cccc(Cl)c2)CC1 | – | inconclusive [inhibitor, full curve]
36 | Cc1ccc2nc(-c3cccc(NC(=O)c4ccco4)c3)[nH]c2c1 | – | inconclusive [inhibitor, partial curve]
37 | CCCOc1ccc(N2C(=O)CC(N3CCC(c4nncn4CC)CC3)C2=O)cc1 (centres undefined) | – | inconclusive [inhibitor, partial curve]
38 | CCOc1ccc(N2C(=O)NC(=O)/C(=C\c3cc(OC)c(OC)cc3[N+](=O)[O-])C2=O)cc1 | – | inconclusive [inhibitor, full curve, poor fit]
39 | COc1cc(NC(=O)c2c(F)cccc2F)nc(OC)n1 | inactive: 1.58% | –
40 | O=C(N/N=C/c1ccco1)C1(O)c2ccccc2-c2ccccc21 | – | inconclusive [inhibitor, partial curve]
41 | Cc1ccc(C(=O)c2c3ccc([N+](=O)[O-])cc3[n+]([O-])n2CCC(N)=O)cc1 | – | inconclusive [inhibitor, partial curve]
42 | Cc1ccc(S(=O)(=O)N2CN(Cc3ccco3)c3nc4ccccc4nc32)cc1C | – | inconclusive [inhibitor, full curve]
43 | CCOc1ccccc1CNC(=O)Cn1nc(C)c2c(C)n(-c3ccc(C)cc3)nc2c1=O | inactive: -7.49% | –
44 | CCOC(=O)C1=C(C)n2c(s/c(=C3\C(=O)Nc4ccccc43)c2=O)=NC1c1ccc(OC)cc1 (centres undefined) | – | active: 25.1 µM
45 | O=C(CCl)NCCNC(=O)c1cc(OCC(F)(F)F)ccc1OCC(F)(F)F | – | inconclusive [inhibitor, partial curve]
46 | Cc1[nH]c2ccc(C(=O)N3CCN(Cc4ccccc4)CC3)cc2c1C | – | inconclusive [inhibitor, partial curve]

Row | SMILES | activity change, negative = inhibition | Potency
47 | CCS(=O)(=O)N1CCC(C(=O)c2ccc(Cl)cc2)CC1 | inactive: -11.9% | –
48 | Cc1ccc(-c2cc(-c3ccccc3Cl)c(C#N)c(N)n2)o1 | – | inconclusive [inhibitor, full curve, poor fit]
49 | COc1ccccc1-c1nnc(NC(C)=O)s1 | inactive: 0.509% | –
50 | Cc1ccc(N2C(=O)C3C4C=CC(CC4)C3C2=O)cc1[N+](=O)[O-] (centres undefined) | – | active: 50.1 µM
51 | Cc1ccc(CN2CCN(Cc3ccc4cc(F)ccc4n3)CC2CCO)o1 (centres undefined) | – | active: 17.8 µM
52 | O=c1cccc2n1CC1CC2CN(CC(O)CN2CC3CC(C2)c2cccc(=O)n2C3)C1 (centres undefined) | – | inconclusive [inhibitor, partial curve]
53 | COc1ccccc1NC(=S)NC1CC2CCC1C2 (centres undefined) | inactive: -12.9% | –
54 | COc1cc2nc(SCC(=O)NCCc3ccccc3)n(Cc3ccco3)c(=O)c2cc1OC | – | inconclusive [inhibitor, single point]
55 | COC(=O)C1=C(CSCc2ccco2)NC(=O)NC1c1cc(C)ccc1C (centres undefined) | – | inconclusive [inhibitor, partial curve]
56 | C/C(=N/N=C(/N)SCc1ccccc1)C(C)(C)C | inactive: -1.84% | –
57 | Cc1cc(C)nc(NS(=O)(=O)c2ccc(NC(=S)NC(=O)c3cccnc3)cc2)n1 | – | inconclusive [inhibitor, full curve]
58 | COc1ccccc1CNC(=O)Cn1cc2c(n1)-c1c(oc(C(=O)N3CCOCC3)c1C)CC2 | inactive: -3.72% | –
59 | CCC(CC)C(=O)Nc1cccc(C(=O)NCc2ccco2)c1 | – | inconclusive [inhibitor, full curve]
60 | Fc1ccccc1NC(=S)Nc1cccc2cnccc12 | – | active: 39.8 µM
61 | CCCS(=O)(=O)N1CC(=O)N(c2ccc(C)c(Cl)c2)C(C)(C(=O)NC2CCCCCC2)C1 (centres undefined) | inactive: 2.81% | –
62 | COC(=O)C1=C(c2ccc(F)cc2OCc2ccccc2)C[C@@H]2CC[C@H]1N2C | inactive: -3.98% | –
63 | CCOC(=O)c1ccc(-c2ccc3[nH]c4ccccc4c(=O)c3c2)cc1F | – | inconclusive [inhibitor, full curve, poor fit]
64 | Cc1cc(C(=O)NC2CC(C)(C)Cc3c2cnn3-c2ccc(F)cc2)no1 (centres undefined) | inactive: 5.93% | –
65 | COc1ccc(-c2nc(CS(=O)CC(=O)NCCc3ccc(Cl)cc3)c(C)o2)cc1OC (centres undefined) | – | inconclusive [inhibitor, full curve]
66 | CCOC(=O)COc1ccc(Br)cc1/C=C/c1[nH]c(=O)[nH]c(=O)c1[N+](=O)[O-] | – | inconclusive [inhibitor, full curve]
67 | COC(=O)c1ccccc1S(=O)(=O)N(Cc1ccco1)Cc1cc2cc(OC)ccc2[nH]c1=O | – | active: 7.08 µM
68 | CC1(C)CC(=O)C2=C(C1)N(Cc1ccco1)C(=O)C2(O)C(F)(F)F (centres undefined) | – | inconclusive [inhibitor, full curve, poor fit]
69 | Clc1ccc(-n2cccc2CN2CCc3c([nH]c4ccccc34)C2c2ccccn2)nc1 (centres undefined) | – | inconclusive [inhibitor, partial curve]
